Structures are written as SMILES. Among all 310,000 compounds or so, about 2,200 (0.71%) showed an effect of 50% or more. The effect is printed as a negative number. The list shows a part of the results.

The test deals with human ether-à-go-go-related gene (hERG) potassium channel (human, UniProt Q12809). Put plainly: primary screen, population patch clamp on CHO cells stably expressing hERG.
Sequence of human ether-à-go-go-related gene (hERG) potassium channel (Q12809 whole entry, looked up): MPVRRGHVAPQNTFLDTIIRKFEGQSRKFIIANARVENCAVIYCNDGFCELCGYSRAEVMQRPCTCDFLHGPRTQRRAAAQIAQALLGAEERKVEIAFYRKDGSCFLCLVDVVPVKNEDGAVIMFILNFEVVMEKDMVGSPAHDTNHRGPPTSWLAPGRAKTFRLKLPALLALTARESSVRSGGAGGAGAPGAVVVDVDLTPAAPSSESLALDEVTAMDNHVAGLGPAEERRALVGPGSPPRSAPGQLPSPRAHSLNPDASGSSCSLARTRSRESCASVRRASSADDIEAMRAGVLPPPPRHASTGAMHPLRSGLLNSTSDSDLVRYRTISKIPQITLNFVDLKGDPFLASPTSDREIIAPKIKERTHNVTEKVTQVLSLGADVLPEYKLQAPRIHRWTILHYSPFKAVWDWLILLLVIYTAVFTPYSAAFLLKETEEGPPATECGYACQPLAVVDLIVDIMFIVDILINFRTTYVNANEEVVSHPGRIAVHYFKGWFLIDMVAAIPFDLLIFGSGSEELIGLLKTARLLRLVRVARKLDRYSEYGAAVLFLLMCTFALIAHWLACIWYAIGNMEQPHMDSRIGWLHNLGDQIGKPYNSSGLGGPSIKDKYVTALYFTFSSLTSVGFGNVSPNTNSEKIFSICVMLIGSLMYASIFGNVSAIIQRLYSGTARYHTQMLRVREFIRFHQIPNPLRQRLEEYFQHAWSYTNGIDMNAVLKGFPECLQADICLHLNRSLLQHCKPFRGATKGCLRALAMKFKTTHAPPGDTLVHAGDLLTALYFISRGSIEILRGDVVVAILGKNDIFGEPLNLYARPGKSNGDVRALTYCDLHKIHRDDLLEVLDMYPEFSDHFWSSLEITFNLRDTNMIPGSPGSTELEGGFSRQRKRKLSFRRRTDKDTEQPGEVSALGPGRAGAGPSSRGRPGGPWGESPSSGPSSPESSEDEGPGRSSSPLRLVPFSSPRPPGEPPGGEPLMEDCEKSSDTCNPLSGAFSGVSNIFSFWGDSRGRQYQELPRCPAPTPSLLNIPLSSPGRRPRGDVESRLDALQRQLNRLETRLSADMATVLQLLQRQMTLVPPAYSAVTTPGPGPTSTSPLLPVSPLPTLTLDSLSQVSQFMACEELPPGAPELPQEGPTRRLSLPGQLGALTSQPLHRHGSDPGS
Regarding `O=C(CSc1nnc(-c2cccnc2)n1Cc1ccco1)Nc1cccc(O)c1`, the “hERG current change (%, negative = inhibition) at 1uM” value was -0.491%.

As to `COc1ccccc1OCCNC(=O)c1ccc(S(=O)(=O)N(C)C)cc1`, the “hERG current change (%, negative = inhibition) at 1uM” value is given as 13.4%. Regarding `O=c1oc(Nc2cccc(Cl)c2)nc2ccccc12`, the “hERG current change (%, negative = inhibition) at 1uM” value stood at 7.76%. Next, `Cc1cc(C)n2nc(C(=O)N/N=C/C=C/c3ccccc3)nc2n1`: -1.91%; `C=CCCCCc1nc2ccccc2c(=O)n1N`: 6.45%; `Cc1cccc(C)c1OCCn1nc(C(=O)O)c2ccccc2c1=O`: 13.1%. For `CNc1nc2c(c(=O)n(C)c(=O)n2C)n1Cc1ccccc1`, the “hERG current change (%, negative = inhibition) at 1uM” value is listed as 3.64%. Consider `Cc1ccc(CCNC(=O)CS(=O)Cc2nc(-c3ccccc3F)oc2C)cc1` (stereo not drawn), for which the “hERG current change (%, negative = inhibition) at 1uM” value worked out at 7.76%. As to `CC(O/N=C/c1ccc(OC(F)F)cc1)C(=O)Nc1cccc(S(=O)(=O)N2CCOCC2)c1` (stereo not drawn), the “hERG current change (%, negative = inhibition) at 1uM” value is on record as -17.4%. As for `Cc1ccc(NC(=O)N/C=C/c2ccco2)c(C)c1`, the “hERG current change (%, negative = inhibition) at 1uM” value was -5.2%. Next, `CC1CCCCN1C(=O)COC(=O)c1cc([N+](=O)[O-])ccc1N1CCOCC1` (stereo not drawn): -10.6%; `COc1ccc(-n2c(C)c(C)c3c(NCCCO)ncnc32)cc1`: 11.6%.

Take `Cc1cccc(C=Nc2ccccc2C(N)=O)c1`: the “hERG current change (%, negative = inhibition) at 1uM” value is 15.2%. With `Cc1c(C(=O)Nc2ccc(Cl)cc2)c2ccccn2c1C(=O)c1ccccc1` the figure was 16.8%. Consider `Brc1ccc(CSc2nccn2-c2ccccc2)cc1`, for which the “hERG current change (%, negative = inhibition) at 1uM” value is given as 5.22%. Next, `Cc1nn2c(NC(C)C)c3c(nc2c1-c1ccccc1)CCC3`: 12.9%. Take `COc1cccc(C(=O)N/N=c2\sc3ccccc3n2C)c1`: the “hERG current change (%, negative = inhibition) at 1uM” value worked out at 4.9%. On to `COC(=O)c1cnn(-c2ccccc2)c1/C=N/NC(=S)Nc1ccccc1`, for which the “hERG current change (%, negative = inhibition) at 1uM” value was determined as 9.35%. As to `Cc1cc(C(=O)OCC(=O)NCc2ccccc2Cl)c(C)o1`, the “hERG current change (%, negative = inhibition) at 1uM” value is on record as 14.7%.

Take `COc1ccccc1/C=N/Nc1cc(C)nc(N2CCOCC2)n1`: the “hERG current change (%, negative = inhibition) at 1uM” value came out at 14.8%. Next, `CNC(=O)CS(=O)(=O)CC(=O)Nc1cc(OC(C)C)c(Cl)cc1Cl`: 16.5%; `COc1c(C)cc(C(=O)C2CCCN(C(=O)CCc3scnc3C)C2)cc1C` (stereo not drawn): 5.5%; `O=C(NCc1ccco1)/C(=C\c1ccco1)NC(=O)c1ccccc1Cl`: -3.6%. Consider `NC(=O)CCn1nc(-c2ccc(Cl)cc2)c2ccccc2c1=O`, for which the “hERG current change (%, negative = inhibition) at 1uM” value is -3.42%. Turning to `Cc1ccc(-c2nn3c(C)nnc3s2)cc1NC(=O)c1cccs1`, the “hERG current change (%, negative = inhibition) at 1uM” value was determined as 1.48%. In the case of `COc1ccc(C)cc1S(=O)(=O)N1CCN(S(=O)(=O)c2cc(C)ccc2OC)C(C)C1` (stereo not drawn), the “hERG current change (%, negative = inhibition) at 1uM” value was 14%. With `COc1ccc(Cc2nnc(NC(=O)CS(=O)(=O)c3ccccc3)s2)cc1OC` the figure was 16.4%.

As to `CCCN1CCC(=NNC(=O)c2ccc(Br)o2)CC1`, the “hERG current change (%, negative = inhibition) at 1uM” value amounted to 3.44%. Turning to `COc1ccc(CNC(=O)C[C@H]2C(=O)N(C3CCCCC3)C[C@@H]2Cc2ccccc2)cc1`, the “hERG current change (%, negative = inhibition) at 1uM” value is -2.93%.

For the molecule `COc1ccc(S(=O)(=O)n2nc(-c3cc(OC)c(OC)c(OC)c3)cc2N)cc1OC`, the “hERG current change (%, negative = inhibition) at 1uM” value was 14.1%. With `CSCCC(NC(=O)COc1ccccc1)C(=O)OCCOc1ccc(C)cc1` (stereo not drawn), the “hERG current change (%, negative = inhibition) at 1uM” value was found to be 4.56%. Take `CC(OC(=O)CCN1C(=O)C2CC=CCC2C1=O)C(=O)Nc1cccc(C#N)c1` (stereo not drawn): the “hERG current change (%, negative = inhibition) at 1uM” value is listed as -1.34%.

Take `CC1(C)CC(=O)c2ccc(OCc3ccc([N+](=O)[O-])cc3)cc2O1`: the “hERG current change (%, negative = inhibition) at 1uM” value was -8.5%. `COC(=O)c1ccc(COc2ccccc2/C=C/C(=O)c2ccc(OCC(=O)O)cc2)cc1`: the “hERG current change (%, negative = inhibition) at 1uM” value is listed as 4.94%. In the case of `Cc1ccc(N(CC(=O)NCc2ccccn2)S(=O)(=O)c2ccccc2)cc1C`, the “hERG current change (%, negative = inhibition) at 1uM” value was 6.32%. Turning to `Cc1noc(C)c1COC(=O)/C=C/c1ccc(Cl)cc1`, the “hERG current change (%, negative = inhibition) at 1uM” value was found to be 15.2%. In the case of `CN(C)CCCNC1=CC(=O)OC12CCCCC2`, the “hERG current change (%, negative = inhibition) at 1uM” value came to 2.34%. For the molecule `CC1CCCC(C)N1C(=O)CN1C(=O)c2ccccc2S1(=O)=O` (stereo not drawn), the “hERG current change (%, negative = inhibition) at 1uM” value is recorded as 5.94%. Take `O=C(Nc1ccc(NC(=O)c2cccs2)cn1)c1ccccc1`: the “hERG current change (%, negative = inhibition) at 1uM” value is on record as 12.8%.

Regarding `CC1CN(S(=O)(=O)c2cccc(-c3cn4ccccc4n3)c2)CC(C)O1` (stereo not drawn), the “hERG current change (%, negative = inhibition) at 1uM” value was 5.51%. With `Nc1nc(-c2ccc(F)cc2)cc(C(F)(F)F)n1` the figure was 17.6%. Next, `O=C(COC(=O)/C=C/c1ccccc1[N+](=O)[O-])NC1CC1`: 6.43%. For `CNC(=S)Nc1cccc(Cl)c1C`, the “hERG current change (%, negative = inhibition) at 1uM” value was determined as 6.78%.

For `Cc1cc2oc(=O)cc(CN(C)Cc3cccc(F)c3)c2cc1Cl`, the “hERG current change (%, negative = inhibition) at 1uM” value is 11.7%. Next, `O=C(CCN1CCN(c2ccccc2)CC1)Nc1ccc2c(c1)OCO2`: -1.29%; `O=C(Nc1ccccc1)c1n[nH]c(Cn2cncn2)n1`: -0.43%. Next, `COc1cc(NC(=O)CSc2nccc(C)n2)c(C(=O)O)cc1OC`: -7.07%.

On to `CCOC(=O)C1=C(C)N(CC)C(=S)NC1c1ccc(Cl)cc1` (stereo not drawn), for which the “hERG current change (%, negative = inhibition) at 1uM” value is 4.93%. Take `O=C1/C(=C/C=C/c2ccco2)SC(=S)N1c1ccc(O)cc1`: the “hERG current change (%, negative = inhibition) at 1uM” value is on record as -9.7%.

With `Cc1cccc(CS(=O)(=O)Cc2ccc(C(=O)NCCN3CCCCC3C)o2)c1` (stereo not drawn), the “hERG current change (%, negative = inhibition) at 1uM” value was -4.93%.

As to `O=C(CCN1C(=O)/C(=C/c2ccc(F)cc2)SC1=S)NC1CCS(=O)(=O)C1` (stereo not drawn), the “hERG current change (%, negative = inhibition) at 1uM” value is -5.48%. With `Cc1[nH]c2ccccc2c1CCN(Cc1cccnc1)C(=S)Nc1ccc(F)cc1`, the “hERG current change (%, negative = inhibition) at 1uM” value is 0.376%. Take `CCOCCCN1C(=O)C(=O)N(CC(=O)N2c3ccccc3NC(=O)CC2C)C1=O` (stereo not drawn): the “hERG current change (%, negative = inhibition) at 1uM” value is reported as 18.3%.

Take `Cc1ccc2c(Cl)cc(Cl)c(OCC(=O)Nc3ccc(C)c(S(=O)(=O)N(C)C)c3)c2n1`: the “hERG current change (%, negative = inhibition) at 1uM” value is given as -7.42%. Next, `NS(=O)(=O)c1cccc(NC(=O)CSc2nc3ccc(Cl)cc3[nH]2)c1`: 16.1%. `Cc1scc(C(=O)NNC(=S)NCC2CCCO2)c1C` (stereo not drawn): the “hERG current change (%, negative = inhibition) at 1uM” value is 1.69%. Consider `COc1ccc(C(=O)OCc2nnc(-c3ccccc3)o2)cc1S(=O)(=O)N1CCOCC1`, for which the “hERG current change (%, negative = inhibition) at 1uM” value amounted to 4.07%.

Source of the values: paper PMC4336329 (PLoS ONE, 2015).
